Hit rate of the full screen: of about 310,000 compounds, about 2,200 (0.71%) showed an effect of 50% or more. Effects have a minus sign here. The list shows a part of the results. *1 amine or outer side, *2 acyl side, *3 side chain or, on linkers, in order; H or OH if unused. Where a SMILES comes first, the peptide text is derived from it. Bridges are numbered along the chain shown (N, C = ends). [ ]: non-standard residue; d: D form. ξ: configuration not given here. hSer(Ph(2-I,4-NO2,6-CO)) = O=C([C@H](CCOc1c(I)cc([N+](=O)[O-])cc1C(=O)[*:3])N[*:1])[*:2]; ξD = NC(CC(=O)O)C(=O)O
Molecular target: human ether-à-go-go-related gene (hERG) potassium channel (human, UniProt Q12809)
Assay: primary screen, population patch clamp on CHO cells stably expressing hERG

Chain of human ether-à-go-go-related gene (hERG) potassium channel (Q12809 whole entry, looked up): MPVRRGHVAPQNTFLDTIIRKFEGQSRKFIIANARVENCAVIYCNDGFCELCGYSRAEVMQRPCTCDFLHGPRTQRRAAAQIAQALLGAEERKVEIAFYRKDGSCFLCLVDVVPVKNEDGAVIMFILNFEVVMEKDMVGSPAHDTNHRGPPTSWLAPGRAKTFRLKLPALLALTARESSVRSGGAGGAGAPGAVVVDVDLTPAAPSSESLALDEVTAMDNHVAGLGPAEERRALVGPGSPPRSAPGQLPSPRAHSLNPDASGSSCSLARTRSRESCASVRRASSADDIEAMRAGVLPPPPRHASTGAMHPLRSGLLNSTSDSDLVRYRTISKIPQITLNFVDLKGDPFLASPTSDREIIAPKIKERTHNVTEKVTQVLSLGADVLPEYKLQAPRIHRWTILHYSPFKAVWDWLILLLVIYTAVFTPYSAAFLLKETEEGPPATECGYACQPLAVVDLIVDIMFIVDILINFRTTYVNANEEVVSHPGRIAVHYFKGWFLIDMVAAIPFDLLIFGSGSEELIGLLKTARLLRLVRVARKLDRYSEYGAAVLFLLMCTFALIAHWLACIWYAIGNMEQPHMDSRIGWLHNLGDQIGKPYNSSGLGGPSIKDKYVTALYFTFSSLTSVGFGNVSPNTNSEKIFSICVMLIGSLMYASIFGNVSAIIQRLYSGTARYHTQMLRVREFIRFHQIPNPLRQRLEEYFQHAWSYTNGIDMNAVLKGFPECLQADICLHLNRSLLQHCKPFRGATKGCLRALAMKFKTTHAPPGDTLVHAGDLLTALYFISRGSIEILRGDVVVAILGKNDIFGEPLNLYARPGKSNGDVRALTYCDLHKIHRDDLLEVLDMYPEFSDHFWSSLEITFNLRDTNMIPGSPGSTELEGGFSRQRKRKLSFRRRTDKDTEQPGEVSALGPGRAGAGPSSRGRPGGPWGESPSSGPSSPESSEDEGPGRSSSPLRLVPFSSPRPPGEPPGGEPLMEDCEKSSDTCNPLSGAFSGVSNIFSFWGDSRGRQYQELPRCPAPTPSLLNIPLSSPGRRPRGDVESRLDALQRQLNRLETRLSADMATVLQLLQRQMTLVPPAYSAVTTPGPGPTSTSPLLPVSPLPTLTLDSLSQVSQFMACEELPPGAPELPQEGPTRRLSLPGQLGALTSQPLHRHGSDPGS

`CCCCc1nn(-c2cc(Cl)ccc2OC)c2c1C(=O)CCC2` was tested. Which “hERG current change (%, negative = inhibition) at 1uM” value did it give?
The value was 12.2%.

For `COc1ccc2cc3cc(C(=O)N(C)C4CCCCC4)oc3nc2c1`, which “hERG current change (%, negative = inhibition) at 1uM” value is on record?
Its value is 16.1%.

`CCOc1ccccc1/C=C(/NC(=O)c1ccccc1)C(=O)NCC(=O)O` was tested. Which “hERG current change (%, negative = inhibition) at 1uM” value did it give?
Its value is 6.66%.

For `COCCNC(=O)CSc1c2c(nc3ccc(Cl)cc13)CCCC2`, which “hERG current change (%, negative = inhibition) at 1uM” value is on record?
Its value is 5.17%.

How did the “hERG current change (%, negative = inhibition) at 1uM” value turn out when `CCOC(=O)C1=C(O)/C(=C\c2cc(C)n(-c3ccccc3F)c2C)N=C1C` was run?
The value was 16.6%.

For `O=C(COC(=O)Cc1n[nH]c(=O)c2ccccc12)Nc1cccc(C(F)(F)F)c1`, which “hERG current change (%, negative = inhibition) at 1uM” value is on record?
Its value is 4.01%.

Which “hERG current change (%, negative = inhibition) at 1uM” value does the source give for `CCC1CCCCN1C(=O)CSc1nnc(CNC(=O)c2c(F)cccc2Cl)o1` (stereo not drawn) here?
The value was 19.8%.

How did the “hERG current change (%, negative = inhibition) at 1uM” value turn out when `Cc1ccc(-c2[nH]ncc2/C=N/n2c(C)nc3ccccc3c2=O)cc1` was run?
The value was 15.2%.

For `CCCCNC(=S)N/N=C/c1cccc(OCC)c1O`, which “hERG current change (%, negative = inhibition) at 1uM” value is on record?
Its value is 9.58%.

Which “hERG current change (%, negative = inhibition) at 1uM” value does the source give for `COc1ccc(C(CNC(=O)C(=O)Nc2ccc3c(c2)OCCO3)N2CCN(C)CC2)cc1` (stereo not drawn) here?
Its value is -5.01%.

For `CCOc1ccc(S(=O)(=O)N/N=C(\C)c2ccc(OC)cc2OC)cc1`, which “hERG current change (%, negative = inhibition) at 1uM” value is on record?
The value was -1.53%.

For `CSCCC(NC(=O)OC(C)(C)C)C(=O)Oc1ccc2c(=O)c(-c3ccc4c(c3)OCCO4)coc2c1` (stereo not drawn), which “hERG current change (%, negative = inhibition) at 1uM” value is on record?
Its value is 4.95%.

With `CC1=NN(C(=O)c2ccccc2Br)C(O)(c2ccc(Cl)cc2)C1` (stereo not drawn) as the molecule, how does the “hERG current change (%, negative = inhibition) at 1uM” value read?
Its value is 16.7%.

For `O=C1CC(C(=O)Nc2nccs2)C(c2ccccc2)O1` (stereo not drawn), which “hERG current change (%, negative = inhibition) at 1uM” value is on record?
Its value is -5.28%.

For `CCc1nnc(NC(=O)C2CC(=O)N(CCc3ccccc3)C2)s1` (stereo not drawn), which “hERG current change (%, negative = inhibition) at 1uM” value is on record?
The value was 15.1%.

For `CC(=O)c1cc(Cl)ccc1OCC(=O)Nc1cccc(S(=O)(=O)N2CCCC2)c1`, which “hERG current change (%, negative = inhibition) at 1uM” value is on record?
Its value is 13%.

With `CCOc1ccc(NC(=S)Nc2cccnc2)cc1` as the molecule, how does the “hERG current change (%, negative = inhibition) at 1uM” value read?
The value was 11.4%.

How did the “hERG current change (%, negative = inhibition) at 1uM” value turn out when `CC(=O)N(c1ccccc1)c1c(F)c(F)c(F)c(F)c1F` was run?
The value was 10.7%.

Which “hERG current change (%, negative = inhibition) at 1uM” value does the source give for `COc1ccc(/C=C2/N=C(SC3CCOC3=O)N(c3cccc(OC)c3)C2=O)cc1` (stereo not drawn) here?
The value was 4.83%.

`CCOc1ccc(-n2nc(C(=O)NCCOC)c3ccccc3c2=O)cc1` was tested. Which “hERG current change (%, negative = inhibition) at 1uM” value did it give?
Its value is 8.4%.

How did the “hERG current change (%, negative = inhibition) at 1uM” value turn out when `COc1ccc(-c2cc(C(F)(F)F)n3nc(C(=O)N4CCN5CCCC5C4)cc3n2)cc1OC` (stereo not drawn) was run?
The value was -16.6%.

`CC(=O)Nc1ccccc1NC(=O)C/C(C)=N/NC(=O)Cc1cccc2ccccc12` was tested. Which “hERG current change (%, negative = inhibition) at 1uM” value did it give?
Its value is 15.3%.

How did the “hERG current change (%, negative = inhibition) at 1uM” value turn out when `Cc1ccc(NC(=O)c2ccccn2)cc1S(=O)(=O)N1CCOCC1` was run?
Its value is 9.45%.

`N#Cc1cnc(Nc2ccc(F)cc2)nc1N` was tested. Which “hERG current change (%, negative = inhibition) at 1uM” value did it give?
The value was 9.95%.

`Cc1ccnc(N/N=C/c2ccccc2)n1` was tested. Which “hERG current change (%, negative = inhibition) at 1uM” value did it give?
The value was 3.1%.

For `CC(=O)Nc1ccc(NC(=O)Cn2nc([N+](=O)[O-])c(Br)c2C)cc1`, which “hERG current change (%, negative = inhibition) at 1uM” value is on record?
Its value is 9.63%.

For `COc1ccc(CNC(=O)OCCN2CCN(S(=O)(=O)c3ccc(C)cc3)CCC2=O)cc1`, which “hERG current change (%, negative = inhibition) at 1uM” value is on record?
The value was -14.6%.

With `CCOC(=O)C1(CC)NC(c2ccco2)C2C(=O)N(CC)C(=O)C21` (stereo not drawn) as the molecule, how does the “hERG current change (%, negative = inhibition) at 1uM” value read?
The value was 11.9%.

With `CCCc1cc(=O)n(-c2nc3ccccc3s2)[nH]1` as the molecule, how does the “hERG current change (%, negative = inhibition) at 1uM” value read?
The value was 8.94%.

Which “hERG current change (%, negative = inhibition) at 1uM” value does the source give for `CN(Cc1ccccc1)c1ccc(N2C(=O)CCCC2=O)cc1[N+](=O)[O-]` here?
The value was 13.4%.

With `O=C(O)c1cc2c(N3CCC(Cc4ccccc4)CC3)ncnc2s1` as the molecule, how does the “hERG current change (%, negative = inhibition) at 1uM” value read?
The value was 25.2%.

How did the “hERG current change (%, negative = inhibition) at 1uM” value turn out when `Oc1cc(Cc2ccccc2)cnc1CN1CCOCC1` was run?
The value was -4.67%.

How did the “hERG current change (%, negative = inhibition) at 1uM” value turn out when `CCOc1ccccc1NC(=O)Nc1ccsc1C(=O)OC` was run?
Its value is 1.64%.

With `O=C(NC(Nc1ncccn1)C(=O)c1ccccc1)c1ccccc1` (stereo not drawn) as the molecule, how does the “hERG current change (%, negative = inhibition) at 1uM” value read?
Its value is -6.91%.

With `CCCN=Cc1c(CCC)[nH]n(-c2nc3ccccc3s2)c1=O` as the molecule, how does the “hERG current change (%, negative = inhibition) at 1uM” value read?
Its value is -4.61%.

How did the “hERG current change (%, negative = inhibition) at 1uM” value turn out when `COc1cc(-c2nc3cnccn3c2NC(C)(C)CC(C)(C)C)ccc1O` was run?
Its value is 17.3%.

With `O=c1ccnc(Sc2ncccc2[N+](=O)[O-])[nH]1` as the molecule, how does the “hERG current change (%, negative = inhibition) at 1uM” value read?
The value was 0.974%.

With `CC(OC(=O)C1CCN(c2ccc(C(F)(F)F)cn2)CC1)C(=O)Nc1cccc([N+](=O)[O-])c1` (stereo not drawn) as the molecule, how does the “hERG current change (%, negative = inhibition) at 1uM” value read?
The value was 5.99%.

With `CC[C@@]1(O)C(=O)OCc2c1cc1n(c2=O)Cc2cc3c(CN(C)C)c(O)ccc3nc2-1.Cl` as the molecule, how does the “hERG current change (%, negative = inhibition) at 1uM” value read?
Its value is 13.4%.

Which “hERG current change (%, negative = inhibition) at 1uM” value does the source give for `CCCCC(=O)OCc1c(-c2cccc(OC)c2)ncc2ccccc12` here?
Its value is 13.9%.

How did the “hERG current change (%, negative = inhibition) at 1uM” value turn out when `COc1ccc(C(=O)CSc2[nH]c(=O)cc(C(F)(F)F)c2C#N)cc1` was run?
Its value is 14%.

For `Cn1ncc(C#N)c1NC(=O)C1CC(c2ccccc2Cl)=NO1` (stereo not drawn), which “hERG current change (%, negative = inhibition) at 1uM” value is on record?
The value was 6.25%.

How did the “hERG current change (%, negative = inhibition) at 1uM” value turn out when `COCCN(C(=O)COC(=O)CSc1ccc2ccccc2c1)c1c(N)n(Cc2ccccc2)c(=O)[nH]c1=O` was run?
The value was 14%.

How did the “hERG current change (%, negative = inhibition) at 1uM” value turn out when `C/C(=N\Nc1ccc(C(=O)O)cc1)c1nc2ccccc2n1C` was run?
Its value is 12.8%.

How did the “hERG current change (%, negative = inhibition) at 1uM” value turn out when `Cc1cc(S(=O)(=O)N2CCOCC2)ccc1OCC(=O)Nc1ccccc1F` was run?
The value was 13.2%.

For `O=C(/C=C/c1ccccc1)NCc1ccco1`, which “hERG current change (%, negative = inhibition) at 1uM” value is on record?
Its value is 0.0536%.

Which “hERG current change (%, negative = inhibition) at 1uM” value does the source give for `O=C(COC(=O)c1cccc(OC(F)F)c1)NC1CCCC1` here?
Its value is 2.26%.

Which “hERG current change (%, negative = inhibition) at 1uM” value does the source give for `CCOc1ccccc1NC(=O)CSc1nc2c(c(=O)n(C)c(=O)n2C)n1C` here?
Its value is 13.8%.

With `COC(=O)Cc1c(C)c2ccc(O)c(CN3CCCC(C)C3)c2oc1=O` (stereo not drawn) as the molecule, how does the “hERG current change (%, negative = inhibition) at 1uM” value read?
Its value is 14.4%.

For `CCc1cc(C(=O)OCC(=O)N2CCC(c3ccccc3)=N2)sc1C`, which “hERG current change (%, negative = inhibition) at 1uM” value is on record?
The value was 4.99%.

`C/C(=N\OCC(=O)OCC(=O)N(Cc1ccccc1)C(C)(C)C)c1ccc2c(c1)OCO2` was tested. Which “hERG current change (%, negative = inhibition) at 1uM” value did it give?
The value was 6.83%.

`C[C@@H]1NC(=O)c2cc([N+](=O)[O-])cc(I)c2OCC[C@@H](C(=O)NC(CC(=O)O)C(N)=O)NC(=O)[C@H](CC(N)=O)NC1=O` (stereo partly drawn) (AN[hSer(Ph(2-I,4-NO2,6-CO))][ξD]-NH2; lactam N-3) was tested. Which “hERG current change (%, negative = inhibition) at 1uM” value did it give?
The value was 16.7%.

For `Cc1ccc(C(=O)O/N=C2\CC3CCC2(C)C3(C)C)cc1` (stereo not drawn), which “hERG current change (%, negative = inhibition) at 1uM” value is on record?
The value was 1.9%.

Which “hERG current change (%, negative = inhibition) at 1uM” value does the source give for `CCCOC(=O)c1ccc(Cl)c(NC(=O)c2ccc(-c3ccccc3)cc2)c1` here?
The value was 10.4%.

From publication PMC4336329 (PLoS ONE, 2015)
